Source: PubChem BioAssay AID624417 (National Center for Advancing Translational Sciences (NCATS), 2012)
About 6,400 (1.6%) of roughly 410,000 compounds were called active. The shares of active, inactive and inconclusive entries below differ from those in the screen. Calls come from the whole dose curve; as a rule, active = well fitted inhibition curve with a large enough effect; inconclusive = small, poorly fitted or top-dose-only effect; inactive = no such curve, though single readings can be large or run the other way. Potencies of inconclusive entries are left out as doubtful fits.

molecular target: Glucagon-like peptide 1 receptor (Homo sapiens) (UniProt P43220); test: qHTS of GLP-1 Receptor Inverse Agonists (Inhibition Mode); conditions: HEK293 GLP-1R CRE-luciferase, luminescence, 24 h, GLP-1R form is constitutively active; activity change, negative = inhibition: at 38.3 µM (top of the series) unless noted; note: nearly all actives have a fitted effect of over 55% in size
Source text: The overall goal of this project was to develop a novel assay for discovering small molecule ligands for class B1 G protein-coupled receptors (GPCRs). Very few agonists (or inverse agonists in inhibition mode) with generally weak activity for this entire group of physiologically important receptors are known to date. To establish proof-of-principle that this critical bottleneck can be overcome with a suitable screening approach, our studies focused on the class B1 receptor for glucagon-like peptide-1 (GLP-1R), a potential therapeutic target for diabetes and neurodegenerative disease. The assay was developed using a cell-based functional readout. Toward this goal, stably transfected HEK293 cell clones were established that co-express (i) a cAMP-responsive luciferase reporter gene, and (ii) constitutively active GLP-1R that upon ligand interaction inhibit (inverse agonists) the luciferase activity. In addition, two control cell lines were developed: (i) one that express only the cAMP-responsive reporter gene to enable initial exclusion of GLP-1R independent effects of candidate probes; and (ii) one with the reported gene cloned with another constitutively active orphan receptor GPR119 to enable exclusion of GLP-1R independent inhibitor effects of candidate inverse agonists. To that end, this assay was optimized for 1536-well format and screened against the MLSMR. […] NIH Molecular Libraries Probe Production Network [MLPCN] NIH Chemical Genomics Center [NCGC] Grant: NS064851 PI Name: Martin Beinborn, Tufts Medical Center
Six ul of cell suspension (200 cells/uL in DMEM + 10% Nu serum + 1% pen-strep) is dispensed in a white solid 1536-well plate. The plates are incubated for 12 hours at 37 deg C at 5% CO2 followed by addition of 23 nL compounds. After 24 hr incubation at 37 deg C and 5% CO2, 3 uL of luciferase assay detection reagent is added. A luminescence read is obtained on the PerkinElmer Viewlux after 12 min incubation at room temperature.
% is set by controls: 0 for no effect and ±100 for the full control effect; potency is the fitted concentration of half-maximal effect; tags give direction and shape of the fitted curve.

UniProt P43220, sequence (P43220 whole entry, looked up): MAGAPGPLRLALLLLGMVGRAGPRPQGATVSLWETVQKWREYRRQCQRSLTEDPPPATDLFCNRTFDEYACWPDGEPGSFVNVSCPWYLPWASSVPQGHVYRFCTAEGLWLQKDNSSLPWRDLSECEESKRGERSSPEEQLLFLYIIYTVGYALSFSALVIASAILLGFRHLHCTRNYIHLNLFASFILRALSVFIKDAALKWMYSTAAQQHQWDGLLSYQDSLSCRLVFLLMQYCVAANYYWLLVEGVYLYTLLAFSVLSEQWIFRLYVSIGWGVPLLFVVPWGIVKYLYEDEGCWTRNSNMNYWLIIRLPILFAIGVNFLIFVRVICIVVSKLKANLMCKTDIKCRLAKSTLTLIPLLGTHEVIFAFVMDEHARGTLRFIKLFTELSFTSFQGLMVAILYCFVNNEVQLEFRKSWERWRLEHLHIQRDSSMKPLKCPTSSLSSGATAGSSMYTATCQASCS

Compound	Potency	activity change, negative = inhibition
CCc1ccc(NC(=O)c2cccc(N3CCCS3(=O)=O)c2)cc1	inconclusive [inhibitor, partial curve]	–
COc1cccc(CN(C)C(=O)c2sccc2-c2ccccc2)c1OC	inconclusive [inhibitor, partial curve, poor fit]	–
CCOc1ccc(S(=O)(=O)Nc2nc3ccccc3nc2N2CCN(C)CC2)cc1	inconclusive [inhibitor, partial curve, poor fit]	–
COc1ccc(S(=O)(=O)NCCc2sc(-c3cccnc3)nc2C)cc1OC	–	inactive: -2.26%
COc1ccc(-n2c(NC(=O)c3ccco3)c(C#N)c3nc4ccccc4nc32)cc1	–	inactive: 0.872%
CCOc1nc(Nc2ccc(OC)c(Cl)c2)nc(OCC)n1	inconclusive [inhibitor, single point]	–
CN(C)P(=O)(Nc1cccc2ccccc12)Nc1cccc2ccccc12	inconclusive [inhibitor, partial curve, poor fit]	–
CC(=O)NCCc1ccc(S(=O)(=O)Nc2ccc(NC(=O)c3ccc(F)cc3)cc2)cc1	inconclusive [inhibitor, single point]	–
CC(=O)Nc1ccc(S(=O)(=O)N2CCN(c3nc(NC4CCCC4)c4ccccc4n3)CC2)cc1	inconclusive [inhibitor, single point]	–
CCN(CC)CCNC(=O)c1ccc(NC(=O)Cc2ccccc2F)cc1	inconclusive [inhibitor, single point]	–
Cc1cc(C)cc(NC(=O)Cn2nc(N3CCN(c4ccccc4)CC3)ccc2=O)c1	inconclusive [inhibitor, single point]	–
O=C(Nc1nccs1)c1ccccn1	inconclusive [inhibitor, single point]	–
CC(C)c1ccc(OCC(=O)Nc2cc(-c3ccccc3)no2)cc1	–	inactive: -12.9%
CN(CC(=O)Nc1ccc(F)c(F)c1)S(=O)(=O)c1cccc2nsnc12	–	inactive: 0.659%
COc1ccc(NC(=O)CSc2nnc(C3CCCCC3)o2)c(OC)c1	–	inactive: 0%
COc1ccc(NC(=O)c2nnn(Cc3cccc(F)c3)c2N)c(OC)c1	inconclusive [inhibitor, partial curve, poor fit]	–
CC(C)Cc1nc(Nc2ccccc2C#N)c2nnn(Cc3ccccc3)c2n1	inconclusive [inhibitor, partial curve, poor fit]	–
Cc1cccc(NC(=O)c2ccc(Cl)c(S(=O)(=O)N3CCCCCC3)c2)n1	inconclusive [inhibitor, single point]	–
COc1cccc(C(=O)N(C)C(C)c2nc3ccccc3s2)c1 (configuration not stated)	inconclusive [inhibitor, single point]	–
COc1ccc(CCNC(=O)C2CCC(=O)N(CC3CCCCC3)C2)cc1 (configuration not stated)	–	inactive: -16.3%
Cc1ccc(C(=O)NCC(=O)NCCCc2ccccc2)s1	inconclusive [inhibitor, single point]	–

Compound	Potency	activity change, negative = inhibition
CC(=O)Nc1ccc(-c2cc(-c3ccccc3)nc(-c3ccccc3)n2)cc1	–	inactive: 17.2%
COc1ccc(Cl)cc1NC(=O)CCc1ccccc1	inconclusive [inhibitor, partial curve, poor fit]	–
O=C(NCc1cccnc1)C(=O)NCC1OCCN1S(=O)(=O)c1ccccc1 (configuration not stated)	–	inactive: 5.77%
CCc1nc2c(OCC(=O)c3ccc(Cl)cc3Cl)cccn2c1N(C=O)Cc1ccccc1	inconclusive [inhibitor, single point]	–
Cc1ccc(S(=O)(=O)Nc2ccc3c(c2)C(=O)N([C@H](C)CO)C[C@H](C)[C@@H](CN(C)Cc2ccc(-c4ccccc4)cc2)O3)cc1	inconclusive [inhibitor, single point]	–
O=S(=O)(c1cccs1)N1CN(Cc2cccs2)c2nc3ccccc3nc21	active: 10 µM	–
CCOC(=O)c1oc2nc(CC(C)C)c3c(c2c1N)CCCC3	inconclusive [inhibitor, single point]	–
CCOc1ccccc1NC(=O)CN1CCC(C(=O)c2ccc(F)cc2)CC1	inconclusive [inhibitor, partial curve, poor fit]	–
O=C(c1cc(COc2cccc(C(F)(F)F)c2)on1)N1CCC(c2ccccc2)CC1	inconclusive [inhibitor, single point]	–
O=C(NCCCN1CCOCC1)c1cc2c([nH]c3ccccc32)c(-c2cccc(Br)c2)n1	inconclusive [inhibitor, single point]	–
COc1ccc2c(CC(=O)NCc3cccs3)coc2c1	inconclusive [inhibitor, single point]	–
COc1ccc(C=O)cc1COc1ccc([N+](=O)[O-])c(C)c1	inconclusive [inhibitor, single point]	–
Cc1onc(-c2ccccc2)c1C(=O)Nc1cc(C(F)(F)F)ccc1N1CCOCC1	inconclusive [inhibitor, full curve, poor fit]	–
COc1cccc(CNC(=O)C2CCN(S(=O)(=O)c3c(C)noc3/C=C/c3cccs3)CC2)c1	–	inactive: -14.4%
COc1cc(/C=C/C(=O)NNc2c(F)c(F)cc(F)c2F)ccc1OC(F)F	inconclusive [inhibitor, single point]	–
CC(Sc1nc(-c2ccccc2)c(-c2ccccc2)[nH]1)C(=O)NCC1CCCO1 (configuration not stated)	–	inactive: -14.8%
CC(C)c1ccc(N(CCc2ccccn2)C(=O)C(C)(C)C)cc1	inconclusive [inhibitor, partial curve, poor fit]	–
N#CC1C(=O)c2ccccc2C1c1ccccc1 (configuration not stated)	inconclusive [inhibitor, partial curve, poor fit]	–
COc1ccccc1NS(=O)(=O)c1ccc(NC(=O)c2ccncc2)cc1	–	inactive: 12.4%
O=C(NCc1ccccc1)c1onc(CSc2ccccc2)c1C(=O)NCC1CC1	active: 3.55 µM	–
CCc1cc(/C(Cc2ccccn2)=N\Nc2ccccc2)c(O)cc1O	inconclusive [inhibitor, single point]	–
